Test results reported in PMC4336329 (PLoS ONE, 2015).
Among all 310,000 compounds or so, about 2,200 (0.71%) showed an effect of 50% or more. Effects have a minus sign here. The list shows a part of the results.

Target: human ether-à-go-go-related gene (hERG) potassium channel (human, UniProt Q12809)
Assay: primary screen, population patch clamp on CHO cells stably expressing hERG

Sequence of human ether-à-go-go-related gene (hERG) potassium channel (Q12809 whole entry, looked up): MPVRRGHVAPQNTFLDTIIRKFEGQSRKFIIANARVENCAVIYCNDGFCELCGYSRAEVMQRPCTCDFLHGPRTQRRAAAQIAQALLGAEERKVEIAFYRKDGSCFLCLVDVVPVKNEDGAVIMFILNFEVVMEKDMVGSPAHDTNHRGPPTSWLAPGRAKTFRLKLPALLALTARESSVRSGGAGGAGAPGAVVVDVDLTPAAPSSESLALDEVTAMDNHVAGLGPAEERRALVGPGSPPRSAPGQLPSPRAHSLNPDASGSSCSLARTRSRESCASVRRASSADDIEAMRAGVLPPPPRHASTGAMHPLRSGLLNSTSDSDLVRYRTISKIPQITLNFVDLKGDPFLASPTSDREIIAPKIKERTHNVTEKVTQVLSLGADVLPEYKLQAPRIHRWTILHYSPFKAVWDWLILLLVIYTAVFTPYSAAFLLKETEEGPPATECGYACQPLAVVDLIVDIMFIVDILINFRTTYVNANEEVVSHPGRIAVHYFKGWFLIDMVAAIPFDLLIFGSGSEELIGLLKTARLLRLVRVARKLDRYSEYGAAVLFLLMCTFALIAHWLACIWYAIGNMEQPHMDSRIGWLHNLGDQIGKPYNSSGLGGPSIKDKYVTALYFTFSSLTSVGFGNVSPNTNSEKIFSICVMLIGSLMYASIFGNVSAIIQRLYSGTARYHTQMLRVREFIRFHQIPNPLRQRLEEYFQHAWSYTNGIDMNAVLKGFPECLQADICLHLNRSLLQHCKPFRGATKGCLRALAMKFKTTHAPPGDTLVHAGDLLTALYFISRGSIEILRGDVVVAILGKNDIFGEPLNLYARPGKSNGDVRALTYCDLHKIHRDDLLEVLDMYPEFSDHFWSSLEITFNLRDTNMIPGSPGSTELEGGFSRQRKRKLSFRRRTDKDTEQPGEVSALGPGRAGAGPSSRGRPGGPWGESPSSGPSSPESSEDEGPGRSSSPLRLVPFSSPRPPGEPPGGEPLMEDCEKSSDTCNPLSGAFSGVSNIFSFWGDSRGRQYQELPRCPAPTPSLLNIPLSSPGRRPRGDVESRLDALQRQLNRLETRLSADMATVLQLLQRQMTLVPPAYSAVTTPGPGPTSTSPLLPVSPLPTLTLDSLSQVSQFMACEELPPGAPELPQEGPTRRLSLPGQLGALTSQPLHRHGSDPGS

How did the “hERG current change (%, negative = inhibition) at 1uM” value turn out when `CCN(CC1COc2ccccc2O1)C(=S)Nc1ccccc1` (stereo not drawn) was run?
The value was -0.135%.

Which “hERG current change (%, negative = inhibition) at 1uM” value does the source give for `Clc1cccc(CSc2nc3ccncc3[nH]2)c1` here?
The value was 8.25%.

For `COC(=O)c1ccc(OCC(=O)N2CCCc3ccccc32)cc1`, which “hERG current change (%, negative = inhibition) at 1uM” value is on record?
Its value is 15%.

How did the “hERG current change (%, negative = inhibition) at 1uM” value turn out when `CCOC(=O)c1ccc(Nc2nc(-c3cccnc3)nc3ccccc23)cc1` was run?
Its value is 6.38%.

`COc1ccc(CCNc2nc(=O)[nH]nc2C)cc1OC` was tested. Which “hERG current change (%, negative = inhibition) at 1uM” value did it give?
The value was 8.85%.

With `CCc1nnc(NC(=O)CCn2cnc3ccccc3c2=O)s1` as the compound, how does the “hERG current change (%, negative = inhibition) at 1uM” value read?
Its value is 2.54%.

How did the “hERG current change (%, negative = inhibition) at 1uM” value turn out when `O=C(NC1CCCC1)C(=O)c1c[nH]c2ccccc12` was run?
Its value is 14.7%.

`CCOC(=O)Cn1c(=O)c2c(nc(Br)n2Cc2ccccc2Cl)n(C)c1=O` was tested. Which “hERG current change (%, negative = inhibition) at 1uM” value did it give?
Its value is 11.5%.

Which “hERG current change (%, negative = inhibition) at 1uM” value does the source give for `N#CCN1CCN(CC(=O)Nc2cccc3ccccc23)CC1` here?
Its value is 15.7%.

`O=C(O)c1ccc(OCCN2CCCC2=O)cc1` was tested. Which “hERG current change (%, negative = inhibition) at 1uM” value did it give?
Its value is 12.1%.

With `CNS(=O)(=O)c1ccc2c(c1)NC(=O)C1CCCN21` (stereo not drawn) as the compound, how does the “hERG current change (%, negative = inhibition) at 1uM” value read?
The value was 14.6%.

For `C#CCOCCOCCOCCNc1nc(N2CCN(C(=O)CCCCCCCCCCNC(=O)[C@H](CO)n3cc(CCCSC)nn3)CC2)nc(N2CCN(C(=O)CCCCCCCCCCNC(=O)[C@H](CO)n3cc(CCCSC)nn3)CC2)n1`, which “hERG current change (%, negative = inhibition) at 1uM” value is on record?
The value was 10.2%.

Which “hERG current change (%, negative = inhibition) at 1uM” value does the source give for `O=C(COC(=O)/C=C/c1cccc(Cl)c1)NC1CC1` here?
The value was 5.04%.

With `CN(CC(=O)Nc1ccccc1)CC(=O)Nc1ccccc1Cl` as the compound, how does the “hERG current change (%, negative = inhibition) at 1uM” value read?
The value was 9.87%.

For `O=C(NCC1COc2ccccc2O1)C1CCN(S(=O)(=O)c2ccc(Cl)cc2)CC1` (stereo not drawn), which “hERG current change (%, negative = inhibition) at 1uM” value is on record?
Its value is 7.92%.

Which “hERG current change (%, negative = inhibition) at 1uM” value does the source give for `O=C(COC(=O)COc1ccc(Cl)cc1)NC1CC1` here?
Its value is 4.63%.

Which “hERG current change (%, negative = inhibition) at 1uM” value does the source give for `O=C(CN(C1CCCCC1)S(=O)(=O)c1ccccc1)N1CCCC1` here?
Its value is -23%.

How did the “hERG current change (%, negative = inhibition) at 1uM” value turn out when `O=C1C(=O)N(CCOCCO)C(c2ccccn2)/C1=C(\O)c1ccccc1` (stereo not drawn) was run?
Its value is 7.23%.

`CNS(=O)(=O)c1ccc(NC(=O)c2ccccn2)cc1` was tested. Which “hERG current change (%, negative = inhibition) at 1uM” value did it give?
The value was 5.24%.

With `O=S(=O)(Cc1ccccc1)NCCc1ccc(F)cc1` as the compound, how does the “hERG current change (%, negative = inhibition) at 1uM” value read?
The value was 14.4%.

For `CCN(CC)c1ccc(/C=N/Nc2nc(C)cc(=O)[nH]2)c(O)c1`, which “hERG current change (%, negative = inhibition) at 1uM” value is on record?
Its value is 7.91%.

With `O=C(c1cc(-c2ccco2)nc2ccccc12)N(Cc1nnc(-c2ccc(Cl)cc2)o1)C1CC1` as the compound, how does the “hERG current change (%, negative = inhibition) at 1uM” value read?
The value was 21.2%.

How did the “hERG current change (%, negative = inhibition) at 1uM” value turn out when `COC(=O)Cc1c(C)nc2nc[nH]n2c1=O` was run?
The value was 10.5%.

`O=C(NCCc1ccccc1)C(=O)NCCC1CCCCN1S(=O)(=O)c1cccs1` (stereo not drawn) was tested. Which “hERG current change (%, negative = inhibition) at 1uM” value did it give?
Its value is -4.19%.

How did the “hERG current change (%, negative = inhibition) at 1uM” value turn out when `CCN(CCCNC(=O)C1CCN(S(=O)(=O)c2cnc[nH]2)CC1)c1cccc(C)c1` was run?
Its value is 6.32%.

Which “hERG current change (%, negative = inhibition) at 1uM” value does the source give for `CSc1nnc(C)c(/C=C/Nc2ccc(Cl)cc2)n1` here?
Its value is 14.9%.

For `C=CCn1c(SCC(=O)Nc2c(C)n(C)n(-c3ccccc3)c2=O)nc2scc(-c3ccccc3)c2c1=O`, which “hERG current change (%, negative = inhibition) at 1uM” value is on record?
Its value is 1.3%.

With `CCCCCC(=O)Nc1nc(C)c(-c2csc(Nc3ccccc3OC)n2)s1` as the compound, how does the “hERG current change (%, negative = inhibition) at 1uM” value read?
The value was 15.9%.

With `CC(C)CCN1C(Nc2ccccc2)=NC[C@@H]1CC(C)C` as the compound, how does the “hERG current change (%, negative = inhibition) at 1uM” value read?
Its value is -3.68%.

For `CC(C)(C)OC(=O)N1CCC[C@H]1c1nnc(SCc2ccc(Cl)cc2Cl)o1`, which “hERG current change (%, negative = inhibition) at 1uM” value is on record?
Its value is 8.33%.

How did the “hERG current change (%, negative = inhibition) at 1uM” value turn out when `O=C(N/N=C/c1cccnc1)c1cccs1` was run?
The value was 4.13%.

How did the “hERG current change (%, negative = inhibition) at 1uM” value turn out when `Cc1cc(C)c(OCC(=O)Nc2ccc(N3CCOCC3)cc2)c(Br)c1` was run?
Its value is 11.3%.

How did the “hERG current change (%, negative = inhibition) at 1uM” value turn out when `CC(C)c1csc(CN2CCCC(CNC(=O)c3cccc4ccccc34)C2)n1` (stereo not drawn) was run?
The value was 11.3%.

For `COc1ccc(C(=O)NC2CCCc3ccccc32)c(OC)c1OC` (stereo not drawn), which “hERG current change (%, negative = inhibition) at 1uM” value is on record?
Its value is -4.64%.

How did the “hERG current change (%, negative = inhibition) at 1uM” value turn out when `COc1ccc(/C=C2/CC/C(=C\c3ccc(OC)c(OC)c3OC)C2=O)c(OC)c1OC` was run?
The value was 10.4%.

For `Cc1cc(Sc2nc(N(C)C)nc(N(C)C)n2)nc(Cl)n1`, which “hERG current change (%, negative = inhibition) at 1uM” value is on record?
Its value is 5.05%.

With `Cc1ccc2nc(-c3ccncc3)cc(C(=O)NCCc3ccc(F)cc3)c2c1` as the compound, how does the “hERG current change (%, negative = inhibition) at 1uM” value read?
The value was 15.4%.

With `NC(=O)COC(=O)c1ccccc1SCC(=O)NC1CCCCCC1` as the compound, how does the “hERG current change (%, negative = inhibition) at 1uM” value read?
Its value is 22.4%.

For `CCOc1ccccc1-n1c(SCC(=O)N2CCOCC2)nc2ccccc2c1=O`, which “hERG current change (%, negative = inhibition) at 1uM” value is on record?
The value was 9.52%.

How did the “hERG current change (%, negative = inhibition) at 1uM” value turn out when `COc1cccc(C(=O)NNC(=O)C2CCCO2)c1` (stereo not drawn) was run?
The value was 9.37%.

`Cc1ccsc1/C=N/n1c(C2CCCCC2)n[nH]c1=S` was tested. Which “hERG current change (%, negative = inhibition) at 1uM” value did it give?
Its value is 9.33%.

With `COc1ccc(CN2CCCC(C(=O)N(C)Cc3ccccc3)C2)cc1OC.O=C(O)C(=O)O` (stereo not drawn) as the compound, how does the “hERG current change (%, negative = inhibition) at 1uM” value read?
Its value is -46.2%.

`COc1cccc(CC2(CO)CCCN(Cc3ccccc3Cl)C2)c1` (stereo not drawn) was tested. Which “hERG current change (%, negative = inhibition) at 1uM” value did it give?
The value was -12.5%.

`CCN(C(=O)Oc1ccccc1)c1ccc(C(O)(C(=O)OC)C(F)(F)F)cc1` (stereo not drawn) was tested. Which “hERG current change (%, negative = inhibition) at 1uM” value did it give?
Its value is 11.8%.

`Cc1ccc(C(=O)N/C(=C/c2ccco2)C(=O)N2CCCCCC2)cc1` was tested. Which “hERG current change (%, negative = inhibition) at 1uM” value did it give?
Its value is 21.9%.

`NC(N)=Nc1nc2ccc([N+](=O)[O-])cc2[nH]1` was tested. Which “hERG current change (%, negative = inhibition) at 1uM” value did it give?
Its value is 13.6%.

How did the “hERG current change (%, negative = inhibition) at 1uM” value turn out when `O=C(COC(=O)c1ccc2ccccc2c1)Nc1ncc(C(F)(F)F)cc1Cl` was run?
Its value is 7.24%.

For `Cc1cc(C)c(NC(=O)Cn2cnc3c(oc4ccccc43)c2=O)c(C)c1`, which “hERG current change (%, negative = inhibition) at 1uM” value is on record?
The value was 11.7%.

`CCOc1ccc(N2C(=O)CC(Sc3nc(O)c(CC)c(=O)[nH]3)C2=O)cc1` (stereo not drawn) was tested. Which “hERG current change (%, negative = inhibition) at 1uM” value did it give?
Its value is 11.6%.

`Cc1ccccc1NC(=O)CC1c2ccccc2CC(C)(C)N1C` (stereo not drawn) was tested. Which “hERG current change (%, negative = inhibition) at 1uM” value did it give?
The value was 13%.

For `Cc1ccc(S(=O)(=O)N(C)c2c(C)ccc(S(=O)(=O)NC(C)(C)C)c2C)cc1`, which “hERG current change (%, negative = inhibition) at 1uM” value is on record?
The value was 12.2%.

With `Cc1ccccc1NC(=O)Oc1cccc(OC(=O)c2ccccc2)c1` as the compound, how does the “hERG current change (%, negative = inhibition) at 1uM” value read?
Its value is 10.9%.

Which “hERG current change (%, negative = inhibition) at 1uM” value does the source give for `Cc1ccc(CNC(=O)CNS(=O)(=O)c2ccc3nc(C)sc3c2)cc1` here?
Its value is -8.77%.

`Nc1c(N=O)c(=O)[nH]c(=O)n1-c1ccccc1` was tested. Which “hERG current change (%, negative = inhibition) at 1uM” value did it give?
Its value is 11.4%.

With `COc1cccc(CN2CCN(Cc3cc4ccccc4o3)CC2CCO)c1` (stereo not drawn) as the compound, how does the “hERG current change (%, negative = inhibition) at 1uM” value read?
Its value is 6.2%.

For `CCOC(=O)c1sc(-c2ccccc2)nc1C`, which “hERG current change (%, negative = inhibition) at 1uM” value is on record?
The value was 9.24%.

How did the “hERG current change (%, negative = inhibition) at 1uM” value turn out when `COc1ccc(C2(C(=O)Nc3ccccc3)CCOCC2)cc1` was run?
The value was 11.2%.
